Reference: the GPR68 mutational scans of Howard et al. (2025)

B1: GPR68, Q15743 (parent)
chain: MGNITADNSSMSCTIDHTIHQTLAPVVYVTVLVVGFPANCLSLYFGYLQIKARNELGVYLCNLTVADLFYICSLPFWLQYVLQHDNWSHGDLSCQVCGILLYENIYISVGFLCCISVDRYLAVAHPFRFHQFRTLKAAVGVSVVIWAKELLTSIYFLMHEEVIEDENQHRVCFEHYPIQAWQRAINYYRFLVGFLFPICLLLASYQGILRAVRRSHGTQKSRKDQIQRLVLSTVVIFLACFLPYHVLLLVRSVWEASCDFAKGVFNAYHFSLLLTSFNCVADPVLYCFVSETTHRDLARLRGACLAFLTCSRTGRAREAYPLGAPEASGKSGAQGEEPELLTKLHPAFQTPNSPGSGGFPTGRLA

Columns and labels:
[1] = variants of: B1; assay: cAMP reporter score (Enrich2 score, wild type = 0); higher = more signal; HEK293T, FACS bins
[2] = variants of: B1; assay: surface expression score (Enrich2 score, wild type = 0); higher = more signal; HEK293T, FACS bins

For MGNITADNSSMSCTIDHTIHQTLAPVVYVTVLVVGFPANCLSLYFGYLQIKARNELGVYLCNLTVADLFYICSLPFWLQYVLQHDNWSHGDLSCQVCGILLYENIYISVGFLCCISVDRYLAVAHPFRFHQFRTLKAAVGVSVVIWAKELLTSIYFLMHEEVIEDENQHRVCFEHYPIQAWQRAINYYRFLVGFLFPICLLLASYQGILRAVRRSHGTQKSRKDQIQRLVLSTVVIFLACFLPYHMLLLVRSVWEASCDFAKGVFNAYHFSLLLTSFNCVADPVLYCFVSETTHRDLARLRGACLAFLTCSRTGRAREAYPLGAPEASGKSGAQGEEPELLTKLHPAFQTPNSPGSGGFPTGRLA [V246M], the cAMP reporter score ([1]; pH 5.5) was -0.032, the cAMP reporter score ([1]; pH 6) was -0.19 and the cAMP reporter score ([1]; pH 6, modulator: ogerin) was -0.181. For the same variant, the cAMP reporter score ([1]; pH 6.5, modulator: ogerin) was 0.231 and the surface expression score [2] was -0.469.

With MGNITADNSSMSCTIDHTIHQTLAPVVYVTVLVVGFPANCLSLYFGYLQIKARNELGVYLCNLTVADLFYICSLPFWLQYVLQHDNWSHGDLSCQVCGILLYENIYISVGFLCCISVDRYLAVAHPFRFHQFRTLKAAVGVSVVIWAKELLTSIYFLMHEEVIEDENQHRVCFEHYPIQAWQRAINYYRFLVGFLFPICLLLASYQGILRAVRRSHGTQKSRKDQIQRLVLSTVVIFLACFLPYHLLLLVRSVWEASCDFAKGVFNAYHFSLLLTSFNCVADPVLYCFVSETTHRDLARLRGACLAFLTCSRTGRAREAYPLGAPEASGKSGAQGEEPELLTKLHPAFQTPNSPGSGGFPTGRLA [V246L] the cAMP reporter score ([1]; pH 5.5) was 0.501, the cAMP reporter score ([1]; pH 6) was 0.222 and the cAMP reporter score ([1]; pH 6, modulator: ogerin) was 0.336. For the same variant, the cAMP reporter score ([1]; pH 6.5, modulator: ogerin) was 0.93.

Scores with a large standard error are left out. Two further conditions of the source, in which the scores hardly spread, are not listed. Read del as a deletion of the residues named and ins as an insertion between two positions. For part of these data: How much ogerin was present is not stated here.
